{"source": "patent US20250000946A1", "about": "(WUXI BIOLOGICS IRELAND, published 2025)", "binders": {"B1": {"name": "W3XX115-T2U0.E44-1.uIgG4V322 (Fc fusion)", "chain": "[no letters for about 150 residues]ESKYGPPCPPCPAPEAAGGPSVFLFPPKPKDTLMISRTPEVTCVVVDVSQEDPEVQFNWYVDGVEVHNAKTKPREEQFNSTYRVVSVLTVLHQDWLNGKEYKCKVSNKGLPSSIEKTISKAKGQPREPQVYTLPPCQEEMTKNQVSLWCLVKGFYPSDIAVEWESNGQPENNYKTTPPVLDSDGSFFLYSRLTVDKSRWQEGNVFSCSVMHEALHNHYTQKSLSLSLG", "heavy": "EIQLQQSGPELVKPGASVKVSCKASGYSFTDYNMYWVKQSHGESLEWIGYIDPYNGGTRYNQKFKGKATLTVDKSSSTAFMHLNSLTSEDSAVYYCARNGHWDGAWFAYWGQGTLVTVSAASTKGPSVFPLAPCSRSTSESTAALGCLVKDYFPEPVTVSWNSGALTSGVHTFPAVLQSSGLYSLSSVVTVPSSSLGTKTYTCNVDHKPSNTKVDKRVESKYGPPCPPCPAPEAAGGPSVFLFPPKPKDTLMISRTPEVTCVVVDVSQEDPEVQFNWYVDGVEVHNAKTKPREEQFNSTYRVVSVLTVLHQDWLNGKEYKCKVSNKGLPSSIEKTISKAKGQPREPQVCTLPPSQEEMTKNQVSLSCAVKGFYPSDIAVEWESNGQPENNYKTTPPVLDSDGSFFLVSRLTVDKSRWQEGNVFSCSVMHEALHNHYTQKSLSLSLG", "light": "DIQMNQSPSSLSASLGDTITITCHASQNINVWLSWYQQKPGNIPKLLIYKASNLHTGVPSRFSGSRSGTGFTLTISSLQPEDIATYYCHQGQSYPFTFGSGTKLEIKRTVAAPSVFIFPPSDEQLKSGTASVVCLLNNFYPREAKVQWKVDNALQSGNSQESVTEQDSKDSTYSLSSTLTLSKADYEKHKVYACEVTHQGLSSPVTKSFNRGEC", "notes": "WT IL-2, no linker, IgG4 Fc with FALA, one Fab arm (E44 format); also called T20.E44-1; wild-type IL-2"}}, "key": {"[1]": {"biological_target": "T1, Human IL-2Rβ/γ (intermediate affinity IL-2 receptor) (human, UniProt P14784 27-551; P31785 23-369)", "T1 construct": "whole, on cells; also called IL-2Rβ/γc; IL-2Rβ (CD122) and γ (CD132)", "T1 sequence (looked up) 1": "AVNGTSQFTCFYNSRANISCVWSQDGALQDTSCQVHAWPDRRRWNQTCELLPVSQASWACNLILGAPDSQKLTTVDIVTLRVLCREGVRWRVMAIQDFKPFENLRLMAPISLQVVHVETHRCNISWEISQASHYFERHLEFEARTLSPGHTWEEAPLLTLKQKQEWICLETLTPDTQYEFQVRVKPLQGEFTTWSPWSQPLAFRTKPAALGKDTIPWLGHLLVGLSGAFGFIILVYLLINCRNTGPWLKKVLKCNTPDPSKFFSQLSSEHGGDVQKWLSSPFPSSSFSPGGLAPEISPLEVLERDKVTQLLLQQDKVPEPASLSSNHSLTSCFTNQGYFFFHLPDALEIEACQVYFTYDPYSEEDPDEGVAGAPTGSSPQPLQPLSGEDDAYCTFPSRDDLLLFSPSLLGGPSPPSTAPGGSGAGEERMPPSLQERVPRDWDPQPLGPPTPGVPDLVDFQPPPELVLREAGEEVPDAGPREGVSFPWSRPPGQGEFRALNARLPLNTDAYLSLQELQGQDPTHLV", "T1 sequence (looked up) 2": "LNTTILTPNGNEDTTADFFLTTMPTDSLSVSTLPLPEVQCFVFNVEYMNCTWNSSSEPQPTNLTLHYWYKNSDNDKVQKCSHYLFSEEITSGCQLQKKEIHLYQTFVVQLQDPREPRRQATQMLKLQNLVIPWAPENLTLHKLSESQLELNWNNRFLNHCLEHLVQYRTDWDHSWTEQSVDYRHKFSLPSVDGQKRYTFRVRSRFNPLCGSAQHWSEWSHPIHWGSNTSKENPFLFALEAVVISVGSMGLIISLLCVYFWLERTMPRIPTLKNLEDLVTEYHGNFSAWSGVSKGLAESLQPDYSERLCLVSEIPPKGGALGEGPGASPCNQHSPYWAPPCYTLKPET", "test": "FACS, HH cells", "experimental": "(§1) Human cutaneous T cell lymphoma HH cells, malignant non-Hodgkin's lymphoma NK92 cells and cutaneous T cell lymphoma MJ20 cells were used for binding assay. They both constitutively express IL-2Rβ (CD122) and […] (CD132), and NK92 and MJ20 also expresses IL-2Rα (CD25). HH, NK92 and MJ20 cells were cultured following ATCC guidance, then transferred to a 96-plate for binding analysis. Cells were incubated with IL-2/Fc fusion proteins at the indicated concentrations for 30 min at 4° C. to avoid internalization. Binding was detected by 2nd antibody of PE-anti-human Fc at 4° C. for another 30 min. The median fluorescence intensity (MFI) on HH and NK92 cells was measured using FACS."}, "[2]": {"biological_target": "T1, Human IL-2Rβ/γ (intermediate affinity …)", "test": "FACS, HH cells", "experimental": "as §1\n(§2) IL-2 variants of T2U0.E44-6 and T2U0.E44-26 were used to construct bivalent variants W3XX115-T2.Z20-1.uIgG4V322 and W3XX115-T2.Z20-2.uIgG4V322 respectively.", "remark": "listed apart in the source"}, "[3]": {"biological_target": "T2, Human IL-2Rα/β/γ complex (high affinity IL-2 receptor) (human, UniProt P01589 22-272; P14784 27-551; P31785 23-369)", "T2 construct": "whole, on cells", "T2 sequence (looked up) 1": "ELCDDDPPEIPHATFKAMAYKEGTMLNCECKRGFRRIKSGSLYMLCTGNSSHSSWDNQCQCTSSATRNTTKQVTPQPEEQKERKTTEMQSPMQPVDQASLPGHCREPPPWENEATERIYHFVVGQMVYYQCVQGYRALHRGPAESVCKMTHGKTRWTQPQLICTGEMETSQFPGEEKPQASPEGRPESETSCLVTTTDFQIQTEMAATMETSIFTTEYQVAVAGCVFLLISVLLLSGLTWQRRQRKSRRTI", "T2 sequence (looked up) 2": "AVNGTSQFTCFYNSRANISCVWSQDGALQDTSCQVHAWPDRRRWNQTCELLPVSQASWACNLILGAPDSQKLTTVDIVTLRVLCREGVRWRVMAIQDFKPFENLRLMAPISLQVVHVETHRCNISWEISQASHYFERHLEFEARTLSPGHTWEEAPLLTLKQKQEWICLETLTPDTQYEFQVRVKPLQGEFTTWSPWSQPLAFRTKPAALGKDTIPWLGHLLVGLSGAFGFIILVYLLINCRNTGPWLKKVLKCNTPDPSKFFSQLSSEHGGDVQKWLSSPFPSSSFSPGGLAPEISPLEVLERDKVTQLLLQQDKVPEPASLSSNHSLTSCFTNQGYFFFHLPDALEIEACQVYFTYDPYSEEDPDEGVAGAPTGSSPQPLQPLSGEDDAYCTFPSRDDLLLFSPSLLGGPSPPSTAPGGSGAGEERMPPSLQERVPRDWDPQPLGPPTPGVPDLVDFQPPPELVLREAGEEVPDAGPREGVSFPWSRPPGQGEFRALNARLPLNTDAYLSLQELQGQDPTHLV", "T2 sequence (looked up) 3": "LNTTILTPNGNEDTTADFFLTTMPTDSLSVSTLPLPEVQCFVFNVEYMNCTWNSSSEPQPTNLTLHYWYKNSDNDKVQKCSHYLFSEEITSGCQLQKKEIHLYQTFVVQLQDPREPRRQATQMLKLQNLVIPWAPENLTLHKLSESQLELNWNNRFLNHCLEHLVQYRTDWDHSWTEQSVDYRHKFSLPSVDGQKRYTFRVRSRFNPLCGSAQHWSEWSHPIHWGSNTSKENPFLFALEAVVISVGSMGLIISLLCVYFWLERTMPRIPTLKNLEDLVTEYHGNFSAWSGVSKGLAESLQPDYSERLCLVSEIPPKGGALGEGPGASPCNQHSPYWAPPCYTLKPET", "test": "FACS, MJ20 cells", "experimental": "as §1"}, "[4]": {"biological_target": "T1, Human IL-2Rβ/γ (intermediate affinity …)", "test": "cell-based or functional assay"}, "[5]": {"biological_target": "T2, Human IL-2Rα/β/γ complex (high affinity …)", "test": "cell-based or functional assay"}, "[6]": {"biological_target": "T1, Human IL-2Rβ/γ (intermediate affinity …)", "test": "cell-based or functional assay", "remark": "listed apart in the source"}, "[7]": {"biological_target": "T2, Human IL-2Rα/β/γ complex (high affinity …)", "test": "cell-based or functional assay", "remark": "listed apart in the source"}, "[8]": {"biological_target": "T1, Human IL-2Rβ/γ (intermediate affinity …)", "test": "FACS, HH cells; EC50 fold vs T2U0.E44-1", "experimental": "as §1"}, "[9]": {"biological_target": "T2, Human IL-2Rα/β/γ complex (high affinity …)", "test": "FACS, MJ20 cells; EC50 fold vs T2U0.E44-1", "experimental": "as §1\nMutations of F42 or R38 were involved in T2U0.E44-26 to generate IL-2 variants."}, "[10]": {"biological_target": "T2, Human IL-2Rα/β/γ complex (high affinity …)", "test": "FACS, MJ20 cells; EC50 fold vs T2U0.E44-1", "experimental": "as §1, §2", "remark": "listed apart in the source"}, "[11]": {"biological_target": "T3, W369-hPro2.ECD.His, IL2Rβ ECD (human, UniProt P14784 27-239)", "T3 construct": "Entry includes linker and C-terminal 6xHis tag; also called CD122", "T3 sequence": "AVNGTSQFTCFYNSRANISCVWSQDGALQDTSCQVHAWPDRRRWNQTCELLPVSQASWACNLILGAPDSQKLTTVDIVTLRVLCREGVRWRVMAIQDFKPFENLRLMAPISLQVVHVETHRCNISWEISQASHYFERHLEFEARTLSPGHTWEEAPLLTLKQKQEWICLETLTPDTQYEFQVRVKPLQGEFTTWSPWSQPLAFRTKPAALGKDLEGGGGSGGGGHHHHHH", "test": "SPR Biacore 8K; set-up for IL-2Rβ not described"}}, "note": "Read-outs that look alike come from different tables or passages of the source."}
{"binder": "B1", "values": [{"measurement": "EC50", "setting": "[1]", "value": 53.8, "unit": "nM"}, {"measurement": "EC50", "setting": "[2]", "value": 31.6, "unit": "nM"}, {"measurement": "EC50", "setting": "[3]", "value": 41.9, "unit": "nM"}, {"measurement": "Human CD8+ T Potency EC50 (STAT5 phosphorylation)", "setting": "[4]", "value": 3.65, "unit": "nM"}, {"measurement": "Human CD8+ T Potency reduction", "setting": "[4]", "value": 1, "unit": "fold"}, {"measurement": "Human Treg Potency EC50 (STAT5 phosphorylation)", "setting": "[5]", "value": 0.0014, "unit": "nM"}, {"measurement": "Human Treg Potency reduction", "setting": "[5]", "value": 1, "unit": "fold"}, {"measurement": "Potency EC50, STAT5 phosphorylation in CD8+ T (column headed Human Treg; paragraph 375 gives these folds for CD8+ T)", "setting": "[6]", "value": 11.4, "unit": "nM"}, {"measurement": "Potency reduction, CD8+ T (column headed Human Treg)", "setting": "[6]", "value": 1, "unit": "fold"}, {"measurement": "Potency EC50, STAT5 phosphorylation in Treg (column headed Human CD8+ T; paragraph 375 gives these values for Treg)", "setting": "[7]", "value": 0.007, "unit": "nM"}, {"measurement": "Potency reduction, Treg (column headed Human CD8+ T)", "setting": "[7]", "value": 1, "unit": "fold"}, {"measurement": "Affinity reduction", "setting": "[8]", "value": 1, "unit": "fold"}, {"measurement": "Affinity reduction", "setting": "[9]", "value": 1, "unit": "fold"}, {"measurement": "Affinity reduction", "setting": "[10]", "value": 1, "unit": "fold"}, {"measurement": "Kd", "setting": "[11]", "value": 3100, "unit": "nM"}]}
